Experimental data as given in PubChem BioAssay AID485313 (National Center for Advancing Translational Sciences (NCATS), 2010).
The whole screen tested about 320,000 compounds, of which about 7,600 (2.4%) were called active. The shares of active, inactive and inconclusive entries below differ from those in the screen. The call rests on the fitted dose curve; in most records, active means well fitted activation curve with a large enough effect; inconclusive means small, poorly fitted or top-dose-only effect; inactive means no such curve, though single readings can be large or run the other way. No potency is given beside an inconclusive call; the fits are too rough.
Potency means the concentration at half of the fitted maximal effect; tags describe the fitted curve by direction and shape.

Assay: qHTS Assay for NPC1 Promoter Activators; further: nearly all actives have a fitted effect of over 60% in size; on activation: % of control where 0% means no effect
Conditions: Huh7 NPC1 promoter luciferase reporter, 24 h; series mostly up to 9.22 µM; activation: at the top concentration
Outline: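 Luminescence read-out of NPC1 promoter-driven luciferase in stably transfected Huh7 cells; compounds delivered in DMSO and left 24 h at 37C, 5% CO2, qHTS titration format.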
In the case of `CCN=c1scc(C)n1/N=C/c1ccsc1`, the Potency is reported as active: 3.16 µM. With `C=CCNCCCCOc1ccc(OCc2ccccc2)cc1` the Potency was inconclusive [activator, single point]. For `Cc1ccc2oc3nc(C)c(C(=O)O)cc3c(=O)c2c1`, the Potency was active: 2.82 µM. With `Nc1ccc2oc(-c3ccc4nc[nH]c4c3)nc2c1` the Potency was inconclusive [activator, full curve]. In the case of `COc1cc(SC)ccc1C(=O)Nc1ccc(C)cc1C`, the Potency is reported as active: 2.51 µM. For `Nc1c(C(=O)N2CCCC2)sc2nc3c(cc12)CCCCCC3`, the Potency was active: 3.16 µM. With `CCn1cc(Br)c(C(=O)Nc2ccc(Cl)c(Cl)c2)n1` the Potency was inconclusive [activator, single point]. For `CC1CCCN(C(=O)C2c3ccccc3C(=O)N3CCc4ccccc4C23)C1` (stereo not drawn), the Potency was inconclusive [activator, single point]. With `COc1ccc(OCc2cc(C(=O)N3CCCN(C(C)=O)CC3)no2)c(Cl)c1` the Potency was inconclusive [activator, single point]. For `C[C@@H]1OC(Nc2ccc(N=Nc3ccccc3)cc2)[C@H](O)[C@H](O)[C@H]1O` (stereo partly drawn), the Potency was inconclusive [activator, partial curve]. With `C/C(=C\c1ccccc1)C(=O)NCc1ccco1` the “activation” value was inactive: 10.4%. In the case of `CCC(=O)Nc1ccc(NC(=O)c2cccc(OC)c2)nc1`, the Potency is reported as inconclusive [activator, partial curve]. For `O=C(COC(=O)c1ccc(F)c(S(=O)(=O)N2CCOCC2)c1)c1ccc(Br)cc1`, the “activation” value was inactive: -0.638%. With `O=C(c1ccco1)N1CCc2ccccc21` the Potency was inconclusive [activator, single point]. With `COc1ccccc1NS(=O)(=O)c1cccc(C(=O)N2CCCCCCC2)c1` the “activation” value was inactive: -2.11%. For `COc1cc(C(=O)Nc2cc(-c3nc4cc(C)ccc4o3)ccc2C)cc(OC)c1OC`, the Potency was inconclusive [activator, partial curve]. In the case of `Cn1c(/C(C#N)=C/c2ccc(O)cc2)nc2ccccc21`, the Potency is reported as inconclusive [activator, single point]. For `COc1cc2ccccc2cc1C(=O)Nc1ccc(C)cn1`, the Potency was inconclusive [activator, single point]. In the case of `O=C(Nc1cccc(-c2cn3c(n2)SCC3)c1)c1ccc2ccccc2n1`, the Potency is reported as active: 0.282 µM. For `O=C(COn1nnc2ccccc21)N1CCN(Cc2ccccc2)CC1`, the Potency was inconclusive [activator, single point]. For `O=C(Oc1cccc(NC(=O)c2ccco2)c1)c1cccc(S(=O)(=O)N2CCCC2)c1`, the “activation” value was inactive: -2.78%. With `COc1ccc2c(c1)CC/C(=C\C=C\c1ccccc1OC)C2=O` the Potency was inconclusive [activator, single point]. With `O=C(c1cc(COc2ccc(F)cc2F)on1)N1CCSCC1` the Potency was inconclusive [activator, single point]. In the case of `Cc1ccc(S(=O)(=O)Nc2cccc(C(=O)N3CCOCC3)c2)cc1`, the Potency is reported as inconclusive [activator, single point]. For `Cc1cccc(NC(=O)Nc2cccc(F)c2)n1`, the Potency was inconclusive [activator, single point]. In the case of `CCCCOc1ccc2c(c1)C(=O)c1cc(O)ccc1-2`, the Potency is reported as inconclusive [activator, single point]. For `N#CC1(c2ccc(NC(=O)c3ccccc3F)cc2)CCCC1`, the Potency was active: 0.631 µM. In the case of `COc1ccc(NC(=O)c2c(-c3c(Cl)cccc3Cl)noc2C)c(OC)c1`, the “activation” value is reported as inactive: -5.52%. In the case of `CCn1cc(Br)c(C(=O)NN)n1`, the Potency is reported as inconclusive [activator, single point]. For `Cc1ccc(CSc2nnc(SCC(=O)N/N=C/c3c(C)nn(-c4ccccc4)c3C)s2)cc1`, the Potency was inconclusive [activator, partial curve]. For `Cc1cc(N2CCOCC2)nc2ccc(NC(=O)CCC(=O)N3CCN(c4ccccc4)CC3)cc12`, the Potency was inconclusive [activator, single point]. In the case of `COc1cccc(NC(=O)CCC(=O)Nc2ccc3nc(N4CCOCC4)cc(C)c3c2)c1`, the Potency is reported as inconclusive [activator, partial curve]. With `Cc1nn(-c2ccccc2)c(C)c1Cc1ccc(O)cc1` the Potency was inconclusive [activator, partial curve]. With `COc1cc2c(cc1OC)CN(c1ncccc1[N+](=O)[O-])CC2` the Potency was inconclusive [activator, partial curve]. For `CCC(=O)Nc1cccc(NC(=S)NC(=O)c2cc3ccccc3o2)c1`, the Potency was active: 1.12 µM. With `O=C(COc1ccccc1)Nc1nc2c(s1)CCCC2` the Potency was inconclusive [activator, partial curve]. For `Brc1ccc2oc(-c3ccn[nH]3)cc2c1`, the Potency was active: 2.24 µM. For `O=C(Nc1ccc2c(c1)OCCO2)c1cccc(S(=O)(=O)N2CCOCC2)c1`, the Potency was inconclusive [activator, partial curve]. With `CN(C)S(=O)(=O)c1ccc2c(c1)nc(CCC(=O)NCCc1ccc(Cl)cc1)n2C` the “activation” value was inactive: -4.94%. With `COC(=O)N/N=C\c1ccccc1OC/C=C/c1ccccc1` the Potency was inconclusive [activator, single point]. With `COc1ccc(O)c(/C=N/N2CCCCC2)c1` the Potency was active: 3.16 µM. In the case of `COC(=O)c1nn(-c2ccc(-c3ccccc3)cc2)cc1O`, the Potency is reported as inconclusive [activator, partial curve]. In the case of `COc1ccc(Cn2c(O)c(/C=C3/C=CC=N3)c(=O)[nH]c2=O)cc1`, the “activation” value is reported as inactive: 3.01%. For `Clc1ccsc1-c1csc(-c2cccnc2)n1`, the “activation” value was inactive: 16.5%. For `Brc1ccc2[nH]c3c(NCc4ccccn4)ncnc3c2c1`, the “activation” value was inactive: -4.27%. For `CN(C)c1ccc(-c2nc3cc(N)ccc3o2)cc1`, the Potency was active: 0.316 µM. With `Cc1nc2ccc(NC(=O)N(C)c3ccccc3)cc2s1` the Potency was inconclusive [activator, single point]. For `O=C(Nc1cccc(F)c1)Nc1ccc(Cl)cn1`, the Potency was inconclusive [activator, single point].
